Test results: the supplement of paper PMC12645437, “Orthogonal IMiD-Degron Pairs Induce Selective Protein Degradation in Cells” (ACS Chemical Biology, 2025)
The other results are listed elsewhere or left out.
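Further: jurkat cells carrying a lentiviral library of mutant zinc finger degrons fused to EGFP plus mCherry, mCherry+ cells FACS sorted, degron abundance counted by next-generation sequencing.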

The sequences below were run against no compound (DMSO) (assay: log2 fold change of degron read counts, EGFP-low vs EGFP+ sorted cells; higher = lower degron-EGFP level without compound (poor expression or instability)). Conditions: compound: DMSO control; 18 h.
For FLCPICGHAFTQKGNLLRHIKL, the “log2 fold change of degron read counts” value was -0.403. FMCPICGHMFTQKGNLLRHIKL was tested, and the “log2 fold change of degron read counts” value was 0.921. For FCCPICGRDFTQKGNLLRHIKL, the “log2 fold change of degron read counts” value was -0.107. In the case of FQCNQCGHSFTQKGNLLRHIKL, the “log2 fold change of degron read counts” value is reported as -0.67. In the case of FACEICGRVFTQKGNLLRHIKL, the “log2 fold change of degron read counts” value is reported as -0.855. FFCSVCGHMFTQKGNLLRHIKL was tested, and the “log2 fold change of degron read counts” value was 1.17. FQCEICGREFTQKGNLLRHIKL was tested, and the “log2 fold change of degron read counts” value was -2.9. In the case of FDCSVCGHNFTQKGNLLRHIKL, the “log2 fold change of degron read counts” value is reported as -0.0516. In the case of FICSVCGHHFTQKGNLLRHIKL, the “log2 fold change of degron read counts” value is reported as -0.141. With FCCNVCGAYFTQKGNLLRHIKL the “log2 fold change of degron read counts” value was 0.291. In the case of FFCDQCGAYFTQKGNLLRHIKL, the “log2 fold change of degron read counts” value is reported as -0.305. FTCEVCGAKFTQKGNLLRHIKL was tested, and the “log2 fold change of degron read counts” value was -2.06. In the case of FRCNQCGAKFTQKGNLLRHIKL, the “log2 fold change of degron read counts” value is reported as -0.122. In the case of FCCDICGAHFTQKGNLLRHIKL, the “log2 fold change of degron read counts” value is reported as -1.73.
